Among all 50,000 compounds or so, about 800 (1.6%) showed an effect of 50% or more. The list shows a part of the results.
Target: Bcl-2-like protein 10 (Homo sapiens) (UniProt Q9HD36)
Assay: Phenotype converters, Bcl-B/TR3 peptide binding displacement, primary biochemical FP (AID 1240);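 further: 0% = Bcl-B with tracer peptide and DMSO and 100% = tracer peptide lacking Bcl-B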
Settings: GST-Bcl-B / FITC-TR3 peptide fluorescence polarization; stronger effect = higher value; compound at 3.75 mg/L

Chain of UniProt Q9HD36 (Q9HD36 whole entry, looked up): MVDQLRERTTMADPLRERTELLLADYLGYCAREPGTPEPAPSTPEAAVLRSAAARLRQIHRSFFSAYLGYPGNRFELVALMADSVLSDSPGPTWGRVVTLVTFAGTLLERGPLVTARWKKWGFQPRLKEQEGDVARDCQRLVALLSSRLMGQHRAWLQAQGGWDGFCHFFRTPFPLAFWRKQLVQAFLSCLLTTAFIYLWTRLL

SMILES | displacement [%]
CCCC(=O)Nc1ccc(NC(=O)c2ccc(Cl)c(Cl)c2)cc1 | 11.4
CCOC(=O)c1c(Nc2ccccc2)sc(C=NCc2ccc(Cl)cc2)c1O | -9
CC(=O)c1ccc(N/C(=N/S(=O)(=O)c2ccc(Cl)cc2)c2ccccc2)cc1 | 16.1
O=C(N/N=C/c1ccc(I)o1)c1ccncc1 | 7.8
CCC(=O)Nc1nc2ccccc2n1CCN(C)C | -6
CCCC(=O)Nc1cc(OC)ccc1OC | 7.5
O=C(c1sc2ccccc2c1Cl)N1CCN(c2ccc(Cl)cc2[N+](=O)[O-])CC1 | 7.3
CCOC(=O)/C(=C/C=C/N(C1CCCCC1)C1CCCCC1)C(C)=O | 0.6
O=C(NCCN1CCOCC1)C(c1ccccc1)c1ccccc1 | 8.1
CCOc1ccc(NC(=O)c2ccc3ccccc3n2)cc1 | 0.5
N#CCOc1ccccc1/C=C/c1[nH]c(=O)[nH]c(=O)c1[N+](=O)[O-] | 6
COc1ccc(C(=O)CSc2nc3cc(OC)ccc3n2Cc2ccccc2)cc1 | -24
CCOC(=O)C1=NNC2C(=O)N(c3ccc(C)c(C)c3)C(=O)C12 (stereo unspecified) | 4.5
C#CCSc1nc2ccccc2n1C(=O)c1ccc(S(=O)(=O)N2CCCCC2)cc1 | -7.5
CC(=O)Nc1ccc(NC(=O)Cn2cnc3c2c(=O)n(C)c(=O)n3C)cc1 | 12.7
N/C(=N\OC(=O)Cc1ccc(Cl)cc1)c1ccncc1 | -6
Cn1c(=O)[nH]c2nc(-c3ccccc3)[nH]c2c1=O | 2.6
COc1ccc(N2C(=O)/C(=C3/C(=O)N(Cc4ccccc4F)c4ccccc43)SC2=S)cc1 | -0.4
COc1ccccc1Cc1noc(-c2ccc(Br)cc2)n1 | -4.5

SMILES | displacement [%]
CC(C)CC(=O)N1CCN(Cc2cccn2C)CC1 | 15
CC(O)CNC(=O)C(=O)NCc1ccc2c(c1)OCO2 (stereo unspecified) | 8.5
C=CCS(=O)(=O)Nc1cccc2ccccc12 | 6.3
CC(C)(O)C1=NOC(c2ccccc2)C1 (stereo unspecified) | -13.4
CN1C(=O)/C(=C\c2ccc(OC(=O)c3cccc(Br)c3)cc2)SC1=S | 15.4
O=C(CNc1cccc2ccccc12)N/N=C/c1cn(Cc2ccccc2)c2ccccc12 | 1.1
O=C1CS/C(=N/N=C/c2ccc3c(c2)OCO3)N1 | -8.7
Cc1ccc(CN2C(=O)CSC2c2cn(-c3ccccc3)nc2-c2ccccc2)cc1 (stereo unspecified) | 10.5
CCOC(=O)C1CCN(C2=NC(=O)/C(=C/c3ccc(N(C)C)cc3)S2)CC1 | -19.9
Cc1cc(Cn2ccnc2)c(C)c([N+](=O)[O-])c1Cn1ccnc1 | 0
CC(=O)Oc1cccc(Oc2ccc([N+](=O)[O-])cc2)c1 | 4.5
COc1cc(-c2nc3nnc(C)n3[nH]2)cc(OC)c1OC | 16.6
COc1ccccc1NS(=O)(=O)c1cc([N+](=O)[O-])ccc1Cl | 10
CC(C)(C#CCN1CCOCC1)OCCC#N | -15.5
Cc1ccc(O)c(C=Nc2cccc3nsnc23)c1 | -10.4
N/C(=N\c1nc2ccccc2o1)NC(=O)/C=C/c1ccco1 | -28.3
Cc1ccc(C23CC4CC(CC(C(=O)Nc5ccc(C(=O)O)cc5)(C4)C2)C3)cc1 | 4.9
COc1ccc([N+](=O)[O-])cc1/C=C1\SC(=S)N(C2CCCCC2)C1=O | -1
COc1cc(NC(=O)Cc2ccc(OC)c(OC)c2)cc(OC)c1 | -5.3

SMILES | displacement [%]
c1ccc(CN2CCC(N3CCN(C4CCCCC4)CC3)CC2)cc1 | 1.5
CCc1c(C)sc(NC(=O)c2ccncc2)c1C(=O)OC | 3.8
COC(=O)C1=C(C)NC(C)=C(C(=O)OC)C1c1ccc(Cl)cc1 | 4.5
O=c1[nH]cc(N=Cc2ccccc2)c(=O)[nH]1 | -2.8
CC1(C)C(C=C(Cl)Cl)C1C(=O)Nc1cccc2ccccc12 (stereo unspecified) | 12.4
Cc1ccnc(SC2CC(=O)N(c3ccccc3)C2=O)n1 (stereo unspecified) | 12.3
CC(C)(C)c1ccc(C(=O)O/N=C(\N)c2cccc([N+](=O)[O-])c2)cc1 | -9
CCC(=O)Oc1ccc2c(C)c(CC)c(=O)oc2c1 | -9.3
CN(c1ccc(C(N)=O)cc1)S(=O)(=O)c1ccccc1 | -1.3
Cc1nc2sc3c(c2c(=O)[nH]1)CCCC3 | 16.9
COc1ccc(S(=O)(=O)NNC(=O)c2ccc(F)cc2)cc1 | -10.9
CCN(CC)C(=O)c1sc(NC(=O)c2ccc([N+](=O)[O-])cc2)c(C(=O)OC(C)C)c1C | -3.3
COc1ccc(/C=C2\N=C(c3ccccc3I)OC2=O)cc1 | -2.3
CONC(=O)c1ccc(C(=O)c2c(C)cc(C)cc2C)cc1 | -0.5
CCc1ccc(/C=N\N2CCN(c3ccc(C)cc3)CC2)cc1 | -1
Cc1ccc(C2C(C(=O)/C=C/c3ccccc3)=C(O)C(=O)N2CCCCCC(=O)O)cc1 (stereo unspecified) | 0.7
C/C(=N/O)c1ccc(NC2=C(N3CCCC3)C(=O)c3ccccc3C2=O)cc1 | 12.1
COc1ccccc1Cc1noc(-c2ccc(I)cc2)n1 | 4.3

Reference: PubChem BioAssay AID1240 (Sanford-Burnham Center for Chemical Genomics, 2008)
